Assay results as given in the RNAGym collection of RNA variant scans (doi:10.1093/nar/gkz1192).
Read counts are not given, so values of variants with three or more changes are uncertain.

B1: CPEB3 Ribozyme (parent)
chain: UAACAGGGGGCCACAGCAGAAGCGUUCACGUCGCAGCCCCUGUCAGAUUCUGGUGAAUCUGCGAAUUCUGCUGUAUAUCUC

Variants of: B1
Assay: self-cleavage, relative activity (ratio to wild type); higher = more cleavage; in vitro, sequencing
Method in brief: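 Relative activity was defined as the cleaved/total read fraction for a variant divided by the same fraction for the unmutated ribozyme. CPEB3 self-cleaving ribozyme libraries were made by rounds of error-prone PCR, barcoded, and transcribed in vitro with T7 RNA polymerase for 5 hours at 37°C, and cleavage ran through transcription plus a 15 min DNase I step before EDTA. Illumina sequencing of template-switched reverse transcripts gave the reads, and DNA sequencing mapped the barcodes. Averages come from three batches, using variants with at least 5 reads.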

Variant | self-cleavage
A18G G22A A65G U69A U78G | 0.06
A18G G22A U25C | 0.28
A18G G22A U25C U51C | 0.18
A18G G22A U69C U72A | 0.07
A18G G22A U76A U78A | 0.09
A18G G22C U49C A56G A57G U76A | 0.21
A18G G22U U66C | 0.16
A18G G24A A56U A64G | 0.13
A18G G24A U41G U49C A65G | 0.19
A18G G24C U51A U78C | 0.21
A18G G24U U25C U31A U41C | 0.17
A18G G30A A45C A64G | 0.23
A18G G30A G46C A57U G63A | 0.06
A18G G33A A35G U72A | 0.13
A18G G33U U43A U72G U80A | 0.03
A18G G36A U43C G46U A56G A57G U58C | 0.21
A18G G42C U49C G52A A57G A65G | 0.07
A18G G42U U78C | 0.42
A18G G46U U72C | 0.46
A18G G55C A64C U69G | 0.16
A18G G61A U66C | 0.1
A18G G63U U66C | 0.2
A18G U25A A45G U48C U80C | 0.42
A18G U25A A45U U72A U78C | 0.34

Variant | self-cleavage
A18G U25A U54A U80A | 0.12
A18G U25A U69C | 0.18
A18G U25A U69C C81U | 0.18
A18G U25C A28G U49C A65G U69A | 0
A18G U25C A28U A35G C40U C79U | 0.28
A18G U25C A35U U51C | 0.09
A18G U25C A57G A64U | 0.07
A18G U25C A65G U80A | 0.12
A18G U25C C32U U80C | 0.1
A18G U25C G46U U51C U54A | 0.26
A18G U25C U26A U72C | 0.12
A18G U25C U31C A45U | 0.17
A18G U25C U41C U60A | 0.58
A18G U25C U51C A56G U76C A77G | 0.12
A18G U25C U54C | 0.17
A18G U25G U51C | 0.34
A18G U26A A45U | 0.17
A18G U26A A64G | 0.36
A18G U26A A77G | 0.74
A18G U26A U54C U58A | 0.14
A18G U26A U60A | 0.2
A18G U26C A28G | 0.16
A18G U26C A35U A47G U48A U49C U66C | 0.05
A18G U26C A64G | 0.13

Variant | self-cleavage
A18G U26C A64U A65G | 0.09
A18G U26C C38A | 0.1
A18G U26C G53U | 0.35
A18G U26C U43C A56G U67C U69C | 0.34
A18G U26C U43G U58C | 0.27
A18G U26C U54C | 0.31
A18G U26C U66C | 0.3
A18G U26G U66C | 0.19
A18G U31A A35C A45U U69A U72C U78C | 0.05
A18G U31A A35G U67C U78C | 0.42
A18G U31A A35U U43A A45C U66A | 0.17
A18G U31A A47C U72C U78C | 0.36
A18G U31A U43C | 0.3
A18G U31A U51C U67C U72C | 0.12
A18G U31A U69A | 0.18
A18G U31A U69A U74G | 0.12
A18G U31A U74C | 0.66
A18G U31C A35U U67G | 0.04
A18G U31C C71G | 0.12
A18G U41A A45G A57G A75G U78C | 0.16
A18G U41A A65U U74C | 0.06
A18G U41A C68U | 0.18
A18G U41A U43A | 0.12
A18G U41A U78C | 0.4

Variant | self-cleavage
A18G U41C A47G G55U C62A | 0.2
A18G U41C A57G U66C U78C | 0.2
A18G U41C C44U | 0.27
A18G U41C G55U | 0.51
A18G U41C U48C U78C | 0.27
A18G U41C U72A U80C | 0.31
A18G U41G A64G | 0.08
A18G U43C C44U U51G | 0.11
A18G U43C U51A A64G U69G U72C | 0.1
A18G U43C U69A A77G | 0.32
A18G U43C U74C | 0.2
A18G U48A A57U | 0.91
A18G U48A G61C G63A A64G U76A U80C | 0.03
A18G U48A U67G | 0.18
A18G U48C U51C | 0.24
A18G U48C U51C U67C | 0.18
A18G U48C U60C U69C U72C | 0.13
A18G U48C U74C | 0.25
A18G U49A A64G U66C U76A | 0.24
A18G U49A A77U | 0.66
A18G U49A U51A U80C | 0.1
A18G U49C A57G A65G U69C | 0.02
A18G U49C A64U | 0.16
A18G U51A A64G U72C A75U U76C | 0.58

Variant | self-cleavage
A18G U51A U69A G70A | 0.17
A18G U58A A65G U67A U72C | 0.09
A18G U58C U78C | 0.11
A18G U60A U67C | 0.15
A18G U60C U67C U78A | 0.13
A18G U60C U72C | 0.24
A18G U69C U72C U80A | 1.22
A18G U69C U74C U78A | 1.26
A18G U72A U80C | 0.83
A18U A20G G63A | 0.31
A18U A20G U41C G63U | 0.42
A18U A20G U54C A64U | 0.13
A18U A20G U72C | 0.4
A18U A20G U78C | 0.23
A18U A20G U80C | 0.57
A18U A20U A21G A77G | 0.16
A18U A20U C79G | 0.05
A18U A20U G46A G63U | 0.09
A18U A20U G46U A47G U78C | 0.16
A18U A20U U49A | 0.47
A18U A21G A35U U49A U80C | 0.24
A18U A21G A45G U60C U69A | 0.59
A18U A21G C27G U58C U69A U74G A75U | 0.03
A18U A21G U25C U41G U58C | 0.12

Variant | self-cleavage
A18U A21G U67A C68A | 0.18
A18U A21U A56G U69A | 0.35
A18U A28C U51A U72C | 0.21
A18U A28G A56G A65G U66C | 0.04
A18U A28G U31A U41C U43A U72A U80C | 0.12
A18U A28G U31C U41A U78C C79U | 0.04
A18U A28G U41A U72C U74C A75G | 0.24
A18U A28G U41C | 0.21
A18U A28G U41C C50A U80C | 0.09
A18U A28U C29U A35U U67C | 0.07
A18U A28U U31C A35G U69A | 1.21
A18U A35G A64G | 0.39
A18U A35G U69C G73A A75G | 1.11
A18U A35U A57U | 0.11
A18U A35U C38G | 0.07
A18U A35U U41A A57U U72C U80C | 0.06
A18U A35U U60A | 0.2
A18U A45C A64U U67C | 0.29
A18U A45G G61U | 0.18
A18U A45G U80C | 0.47
A18U A45U A47G U60A | 0.22
A18U A45U U48C U51C | 0.57
A18U A45U U54C U60A U67C U80C | 0.09
A18U A45U U72C | 0.18

Variant | self-cleavage
A18U A45U U78C | 0
A18U A47C A64U | 0.05
A18U A47G U48C C62U | 0.2
A18U A56G U67C U72C | 0.14
A18U A57G A65G | 0.2
A18U A64U A75U | 0.35
A18U A64U U80A | 0.17
A18U C23G A45U | 0.23
A18U C23U A47G U49A A56G | 0.18
A18U C23U G30A C38U U60C U72A | 0.06
A18U C23U U26C | 0.22
A18U C23U U48A U51C U54G A65G U72A | 0.04
A18U C23U U54C | 0.28
A18U C23U U80A | 0.2
A18U C27A U69A | 0.08
A18U C27U A45U U49A A64U | 0.05
A18U C29G U41A | 0.16
A18U C32U U54A U72A | 0.1
A18U C34A A77U | 0.09
A18U C34G A35G G61C U72C | 0.09
A18U C34G A45U U48C | 0.15
A18U C34U A64U | 0.11
A18U C34U C40U U80C | 0.22
